Results taken from PubChem BioAssay AID2546 (National Center for Advancing Translational Sciences (NCATS), 2010).
Hit rate of the full screen: of about 310,000 compounds, about 11,000 (3.5%) were called active. This list was built around the results that the source calls inconclusive (neither active nor inactive); the mix of calls is not that of the screen. Calls come from the whole dose curve; as a rule, active = well fitted inhibition curve with a large enough effect; inconclusive = small, poorly fitted or top-dose-only effect, or effect the other way; inactive = flat fitted curve, though single readings scatter. Potencies of inconclusive entries are left out as doubtful fits.

Assay: VP16 counterscreen qHTS for inhibitors of ROR gamma transcriptional activity;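 note: Gal4-VP16 expression switched on by copper sulfate through the metallothionein promoter; nearly all actives have a fitted effect of over 50% in size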
Settings: Drosophila S2 Gal4-VP16 UAS-luciferase, luminescence, 20 h; activity, negative = inhibition: at 53.6 µM (top of the series)
% is set by controls: 0 for no effect and ±100 for the full control effect; potency is the fitted concentration of half-maximal effect; tags give direction and shape of the fitted curve.

Structure (SMILES) | Potency | activity, negative = inhibition
Cc1nc(-c2cccs2)sc1C(=O)NN | inconclusive [inhibitor, single point] | 
CNC(=S)NNC(=O)COc1ccc(C)c(C)c1 | active: 7.08 µM | 
CCOc1ccc2[nH]c(=O)c(CN(CCN3CCCC3)C(=S)Nc3ccccc3OCC)cc2c1 | inconclusive [inhibitor, single point] | 
O=[N+]([O-])c1ccc(S(=O)(=O)c2ccccc2)nc1 | active: 3.55 µM | 
S=c1[nH]nc(-c2cc(-c3ccccc3)n[nH]2)n1/N=C/c1cccc(Cl)c1 | inconclusive [inhibitor, partial curve, poor fit] | 
Cn1ncc(Cl)c1C(=O)N1CCN(C(=O)c2ccco2)CC1 |  | inactive: -3.92%
CCOc1ccc(NC(=S)NCc2ccc3[nH]c(C)cc3c2)cc1 | active: 10 µM | 
Oc1[nH]c2ccccc2c1N=Nc1cccc(Cl)c1 |  | inactive: -13%
Cc1ccc(NC(=O)C2=C(O)CCn3c2nc2ccccc23)cc1 | active: 5.62 µM | 
O=C(COC(=O)Cc1ccc(-c2ccccc2)cc1)NCc1ccc(F)cc1 |  | inactive: 6.76%
O=C(CSc1nnc(SCc2ccccc2)s1)N/N=C/C=C\c1ccco1 | inconclusive [inhibitor, single point] | 
Nc1c(C(=O)NCc2ccco2)nnn1-c1ccccc1 | inconclusive [inhibitor, single point] | 
COc1ccc(CCNC(=S)Nc2ccc(C(C)C)cc2)cc1 | inconclusive [inhibitor, single point] | 
Cc1ccc(C(=O)ONC(=O)c2ccc(Cl)cc2)cc1[N+](=O)[O-] | inconclusive [inhibitor, partial curve] | 
COCCn1c(CCc2ccccc2)n[nH]c1=S | inconclusive [inhibitor, single point] | 
Cc1cccc(NC(=S)N/N=C(\c2ccccc2)C(C)C)c1 | inconclusive [inhibitor, single point] | 
O=C(CSc1ccccc1)Nc1ccncc1 | inconclusive [inhibitor, single point] | 
CCC(=O)NC(c1ccc(Cl)cc1Cl)c1ccc2cccnc2c1O (stereo unspecified) | inconclusive [inhibitor, single point] | 
Cc1ccc(NS(=O)(=O)c2cccc(C(=O)NCCc3c[nH]c4ccccc34)c2)c(C)c1 | active: 22.4 µM | 
Cc1ccccc1CSCCNC(=O)Nc1ccccc1 | inconclusive [activator, single point] | 
N/C(COc1cccc(C(F)(F)F)c1)=N\NC(=O)c1cccnc1Oc1ccccc1 | active: 1.26 µM | 
